# Source: the supplement of paper PMC11417369
# ± gives the standard deviation of the averaged measurements. The list shows a part of the results.
# Test system: PfAP2-G AP2 domain (GST-tagged)
# Test: gcPBM binding intensity (ln(normalized median fluorescence intensity)); higher = stronger DNA binding
# Procedure, shortened: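 Plasmodium falciparum DNA-binding domains carrying a GST tag were expressed in E. coli and applied for 1 h, at about 25 μg on average, to an Agilent 4 × 180k array. The array held primer-extended double-stranded 36-bp intergenic genomic probes together with negative controls, and binding took place in 1× PBS with 1% milk, 0.2 mg/ml BSA, 0.5% salmon testes DNA and 0.03% Triton X-100. An Alexa488 anti-GST antibody detected bound protein, and the array was scanned at 488 nm. Binding intensity is taken as the highest Masliner-normalised natural-log median intensity across replicate spots of either probe orientation.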
row,Sequence,gcPBM binding intensity (ln)
1,TATAGGTATTTATATACACACATATTCTTTTTACAC [CACACA_site6686],10.1 ± 0.16
2,AAGCCCATTATTAAATGTACAAAATTTTATAAACTA [XGTACX_site7800],10.7 ± 0.45
3,ATATATATATATATATGTACTTATTACCAATGTTAG [XGTACX_site1896],11.2 ± 0.79
4,TTTTGTTATGGTTTGATGCACTTATATATAAATATT [GTGCAC_site9705],10.3 ± 0.19
5,ATGTAGATAAAACGTGTGCACATGTTTTTTGTTATT,10.3 ± 0.11
6,CACAGTGATATAAAAACACACATGAATTATAATTTC [CACACA_site1667],9.95 ± 0.16
7,TTTGGAAAAAAATTATTTAAACGATATGAATTGATG [XGTACX_negctrl_site506],9.935 ± 0.064
8,AAAATTTTACAGAAGGTGCGTATATTTTCCTGCTTA [GTGCAC_site9643],10.1 ± 0.13
9,ATTTAAATACAAAATTGTACTTTTCTATATTTAACA [XGTACX_site6146],11.3 ± 0.64
10,ACCCATTTAACAAAATGTACATTATTATAATTACTT [XGTACX_site7105],10.9 ± 0.54
11,AAATTTTAAATAGTATGTACGTATGAAATATATATG [XGTACX_site7511],11.4 ± 0.79
12,TGAACTTACTTGGACATACACACATATATATATATA [CACACA_site2977],10.8 ± 0.53
13,TATATATATATACCAACACACATACAGATATATATA [CACACA_site5060],10.1 ± 0.25
14,TTTATATACAAAAATGCACACGAAAAGTAATATATA [CACACA_site9387],10.28 ± 0.049
15,TGTAAGTCGTTATAAGCACACACATAAATAAAAATA [CACACA_site8448],10.2 ± 0.18
16,TACAATATTTTGAGACGTACATATATACATTTACAT [XGTACX_site5880],11.4 ± 0.95
17,CTTACCAAAAGACACACACACACAAGATATATAAAT [CACACA_site6964],10.2 ± 0.26
18,AAATTAAAATAAAAATGTACATATAAAGACACAACT [XGTACX_site3132],11.1 ± 0.6
19,ATAAAAAAAAATAGCACACATAAATATATTATATAT [CACACA_site767],10 ± 0.014
20,ACAATATAGATTAAAAGTACAAATAGTAAATTATAT [XGTACX_site3165],11.2 ± 0.71
21,TCTTAAATATATAAATTGAAAAATATAAAAGTAATA [CACACA_negctrl_site1558],9.88 ± 0.29
22,AAAACAATATACTGTAGTACTGATGATATATATATA [XGTACX_site7798],11 ± 0.52
23,AATCATCTCATAAAAATTAATTAGTGTATGTCTTTT [TGCATGCA_negctrl_site416],9.68 ± 0.18

row,Sequence,gcPBM binding intensity (ln)
1,CTACTTATAAATAGAACACACATAAGTGTATTTGTA [CACACA_site3759],10.1 ± 0.11
2,TAAAATTTAAATTATACACACTTAAGTAACATCATC [CACACA_site4450],10.4 ± 0.22
3,TAATTATGTATGAACTGTACAGGTTATTTTATTTTA [XGTACX_site5204],11.1 ± 0.76
4,AAAAAAAATTTATTTGCATGCAAAAAAAAAAAAAAA [TGCATGCA_site67],9.66 ± 0.39
5,AAAAAATACCTCTATAGTACATATATATAATATTTA [XGTACX_site7222],10.7 ± 0.51
6,AATATAAATAATGTTAAACACACATACCGATATATA [CACACA_site8869],9.81 ± 0.2
7,ATTTATAGAGCTATATGTACATATATATATATTATT [XGTACX_site3704],11 ± 0.49
8,AAAAAACACGGACACACACACATATACATACATACA [CACACA_site5470],11.5 ± 0.88
9,TTCCACCAATATATATGTACTTATAATATATATATA [XGTACX_site8700],11.2 ± 0.84
10,AATTACATATAATACTGTACGCTAATAAGAAAAAAA [XGTACX_site7413],11.5 ± 0.75
11,AAAAGGTGGAAAAATGCATGCAGGCTATTCTATATA [TGCATGCA_site1034],9.63 ± 0.15
12,ATATAAATAAAGAAATATATATATATATATATATAT [GTGCAC_negctrl_site668],9.73 ± 0.38
13,AACGCTTATTAGTTGTTGTATATGTGTTCACATATT [CACACA_negctrl_site379],10.1 ± 0.11
14,ATAAAAGATTTATACATACACACATATTATATTCAC [CACACA_site3714],9.98 ± 0.028
15,TTTTTTTTTTTTTTTTAACACACATATATATATTTT [CACACA_site8585],9.63 ± 0.43
16,ATATATATGTATATAACATGCAACATTTAATAATAA [TGCATGCA_site1018],9.925 ± 0.021
17,TTTTTTTTTTGTTGTTGTACTCTTATATTTTTATAT [XGTACX_site6178],11.4 ± 0.79
18,ATTCTAGTAATATATGTATATTTATATATGTATGTG [XGTACX_negctrl_site419],10 ± 0.14
19,ACACATGTATTTGGTGCATGTTGTTAAAAAAATATT [TGCATGCA_site795],10.1 ± 0.18
20,TCATAGCTAGGATAACGTACAGAAAAGTGAAAAATT [XGTACX_site3322],11.2 ± 0.57
21,TTTTTTTTTTTATGCTCACACATTAATTTTTATACA [CACACA_site4527],9.96 ± 0.057
22,TATGTATGTATGTATGTATGCATGTCTAACACCTAA [TGCATGCA_site360],9.98 ± 0.085
23,AAAAAGAAAAAAGAAAGTACAAATATACACATTTTT [XGTACX_site3343],10.9 ± 0.54

row,Sequence,gcPBM binding intensity (ln)
1,TTTTTATTATAAGGTCGTACAATTGTAATTATTGTA [XGTACX_site1413],11.4 ± 0.83
2,GATCTATTGAGTGATACATGCAGGAAAATTAAAAAC [TGCATGCA_site729],10.11 ± 0.042
3,ATTGTCAAAACACGCACACACATATACATAATAACA [CACACA_site1742],10.4 ± 0.33
4,ATTATATACATATATATTGTATATACTATACATATG [XGTACX_negctrl_site545],9.875 ± 0.021
5,TAATAAAAAAAGTGCACACACATAATATATATATAT [CACACA_site3340],10.7 ± 0.54
6,TATAAATCAATATGTACACACATATACATGTTGAAT [CACACA_site7460],11.3 ± 0.9
7,CATATAATATATCAATGTACATATATATTTTATAAA [XGTACX_site5901],11.1 ± 0.73
8,TTAGCAACTATTACTACACACATTTTTATATAATTT [CACACA_site1372],10.03 ± 0.014
9,ATATATACCTATAACACACACATATTTATATTTATA [CACACA_site7257],9.985 ± 0.049
10,ATATATATATAAAGGAGTACATACATTAAAAAAAAA [XGTACX_site1095],11.7 ± 1
11,TCTTATTTAAAAATAGCACACATTATATATATATAT [CACACA_site8916],10.2 ± 0.52
12,AAAAAACATACATACACACACATAAATATATATATT [CACACA_site2699],10.1 ± 0.16
13,ACACATACACATTAGGTGCACATAATTCAATATTAC [GTGCAC_site9862],10.6 ± 0.46
14,TATGAAACGATATATGTGCACATGAGGGAATATAGA [GTGCAC_site9611],10.5 ± 0.24
15,TTAAATGTTATATATTGTACATATAATATATGTATT [XGTACX_site1492],10.8 ± 0.5
16,TCCTTGTTTGGTTTTTTTTTTTCTTCTTTTTTTTTT [CACACA_negctrl_site1355],10.1
17,TTATGTTATATATACACACACAAAAGAAAAAAAAAA [CACACA_site2987],10.2 ± 0.31
18,AGGTTAAAAATAAATACACACATTTGATGTCTGTAT [CACACA_site6596],10 ± 0.11
19,ATATAACATATTAATAATATATTTATAATATGTTTA [GTGCAC_negctrl_site168],9.45 ± 0.15
20,TTTTCTATTTAATTGGTGCACTGATATATACACATA [GTGCAC_site9533],10.4 ± 0.4
21,TTTTGAGAATATATGGGTACAAATAAATAAAAATAT [XGTACX_site1933],11.2 ± 0.7
22,AAATTTAAATAATGTGCGCATCTTAATATATATAAG [GTGCAC_site9890],10.2 ± 0.13
23,AAATAATATTGAAAAGTGCATATTTTTGTTGATATA,10.04 ± 0.071

row,Sequence,gcPBM binding intensity (ln)
1,CATATAAATAGACACACACACACATATAAATAAATA [CACACA_site7156],10.2 ± 0.16
2,TCTTATAACAAAAAAAAATAAAAAATAAAACTATAT [GTGCAC_negctrl_site11],9.55 ± 0.29
3,TCATTCAAAAAAAATCAACACACAGTTACATAGCTC [CACACA_site8700],9.79 ± 0.11
4,GTTTTTTTTATATATTGTACAAATAATATATTATAT [XGTACX_site29],10.9 ± 0.46
5,AGGTTGAATATATATTTGTGATTATATTATTTTATT [CACACA_negctrl_site778],9.755 ± 0.092
6,TATATATATATATAATGTACAAACTCCTTTATATAT [XGTACX_site4545],10.6 ± 0.4
7,CCATGTCAAACATTTGCACACAAAAAAATAAAAATT [CACACA_site4546],10.2 ± 0.31
8,TCATATATATTATACACACACATATATAAATATATA [CACACA_site967],10 ± 0.23
9,AAAAAAAAAAAAAAAGCACACATATAAATATGAATA [CACACA_site8391],10.3 ± 0.23
10,TTTTAAAAAAAAAAAATAAATAAATAAGATATTATC [CACACA_negctrl_site1791],9.45 ± 0.27
11,TTTTAAAACTACATTGGTACACAATAAAAAAAAAAA [XGTACX_site2793],11.2 ± 0.73
12,AATATAAACACAAACACACACATATATATATATATA [CACACA_site4307],10.2 ± 0.49
13,AACACCAAACTAAATGTACACACATACATAAATATA [CACACA_site8298],11.3 ± 0.86
14,TTATTTAAACAAATCACACACAAATATAAATACATA [CACACA_site5158],10.1 ± 0.16
15,GAAAATTCATAAAAATGTACTTATTATATTATTTAT [XGTACX_site2169],10.9 ± 0.57
16,AAAGGTTTGCGTTGTGTGCACAAAATAAATATATAA,10.6 ± 0.26
17,GATATATAACTTTTAACACACAAAAAAAAAAAAAAT [CACACA_site7653],10 ± 0.26
18,TAAAATTATGTAATAACACACATATACAATACATAT [CACACA_site1236],10.11 ± 0.042
19,TTTATGAAACAGTGCACACATAAAAATAAATACATA [CACACA_site5631],10.6 ± 0.28
20,TTATTTTAAATTAACACATGCATAATATATGTATAT [TGCATGCA_site597],9.75 ± 0.028
